# Laboratory results as given in the supplement of paper PMC8728848.
# The list shows a part of the results.
# Experiments:
# Assay in all cases: glycan array binding signal (z-score within array); higher = stronger binding
# Details in all cases: glycan notation: IUPAC condensed, linker removed
# [1] = molecular target: GlcNAc(b1-4)GlcNAc(b1-4)GlcNAc(b1-4)GlcNAc(b1-4)GlcNAc
# In short: (§1)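 The Consortium for Functional Glycomics database supplied 3228 glycan arrays, of which those lacking an available protein sequence were dropped. The binding signal, a within-array Z-score, was averaged across arrays of the same protein sequence and across linkers. Negative scores can be read as non-binding.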
# [2] = molecular target: GlcNAc(b1-4)GlcNAc(b1-4)GlcNAc(b1-4)GlcNAc(b1-4)GlcNAc(b1-4)GlcNAc
# In short: as §1
# [3] = molecular target: GlcNAc(b1-4)[GlcNAc(b1-6)]GalNAc
# In short: as §1
# [4] = molecular target: GlcNAc(b1-6)Gal(b1-4)GlcNAc
# In short: as §1
# [5] = molecular target: GlcNAc(b1-6)GalNAc
# In short: as §1
# [6] = molecular target: Kdn(a2-3)Gal(b1-3)GlcNAc
# In short: as §1
# [7] = molecular target: Kdn(a2-3)Gal(b1-4)GlcNAc
# In short: as §1
# [8] = molecular target: Man(a1-2)Man(a1-2)Man(a1-3)Man
# In short: as §1
# [9] = molecular target: Man(a1-2)Man(a1-2)Man(a1-6)[Man(a1-3)]Man
# In short: as §1
# [10] = molecular target: Man(a1-2)Man(a1-3)Man
# In short: as §1
# [11] = molecular target: Man(a1-2)Man(a1-3)[Man(a1-2)Man(a1-6)]Man
# In short: as §1
# [12] = molecular target: Man(a1-2)Man(a1-3)[Man(a1-2)Man(a1-6)]Man(a1-6)[Man(a1-2)Man(a1-2)Man(a1-3)]Man(b1-4)GlcNAc(b1-4)GlcNAc
# In short: as §1
# [13] = molecular target: Man(a1-2)Man(a1-3)[Man(a1-6)]Man(a1-6)[Man(a1-2)Man(a1-3)]Man(b1-4)GlcNAc(b1-4)GlcNAc
# In short: as §1
# [14] = molecular target: Man(a1-2)Man(a1-6)[Man(a1-3)]Man(a1-6)[Man(a1-2)Man(a1-2)Man(a1-3)]Man(b1-4)GlcNAc(b1-4)GlcNAc
# In short: as §1
# [15] = molecular target: Man(a1-3)[Man(a1-6)]Man
# In short: as §1
# [16] = molecular target: Man(a1-3)[Man(a1-6)]Man(a1-6)[Man(a1-2)Man(a1-3)]Man(b1-4)GlcNAc(b1-4)GlcNAc
# In short: as §1
# [17] = molecular target: Man(a1-3)[Man(a1-6)]Man(a1-6)[Man(a1-3)]Man(b1-4)GlcNAc(b1-4)GlcNAc
# In short: as §1
# [18] = molecular target: Man(a1-3)[Man(a1-6)]Man(b1-4)GlcNAc(b1-4)GlcNAc
# In short: as §1
# [19] = molecular target: Man(b1-4)GlcNAc
# In short: as §1
# [20] = molecular target: Neu5Ac(a2-3)Gal
# In short: as §1
# [21] = molecular target: Neu5Ac(a2-3)Gal(b1-3)GalNAc
# In short: as §1
# [22] = molecular target: Neu5Ac(a2-3)Gal(b1-3)GalNAc(b1-3)Gal(a1-4)Gal(b1-4)Glc
# In short: as §1
# [23] = molecular target: Neu5Ac(a2-3)Gal(b1-3)GalNAc(b1-3)Gal(b1-4)GlcNAc
# In short: as §1
# [24] = molecular target: Neu5Ac(a2-3)Gal(b1-3)GalNAc(b1-4)[Neu5Ac(a2-3)]Gal(b1-4)Glc
# In short: as §1
# [25] = molecular target: Neu5Ac(a2-3)Gal(b1-3)GalNAc6S
# In short: as §1
# [26] = molecular target: Neu5Ac(a2-3)Gal(b1-3)GlcNAc
# In short: as §1
# [27] = molecular target: Neu5Ac(a2-3)Gal(b1-3)GlcNAc6S
# In short: as §1
# [28] = molecular target: Neu5Ac(a2-3)Gal(b1-3)[Fuc(a1-4)]GlcNAc
# In short: as §1
# [29] = molecular target: Neu5Ac(a2-3)Gal(b1-3)[Fuc(a1-4)]GlcNAc(b1-3)Gal(b1-4)[Fuc(a1-3)]GlcNAc
# In short: as §1
# [30] = molecular target: Neu5Ac(a2-3)Gal(b1-3)[Neu5Ac(a2-3)Gal(b1-4)]GlcNAc
# In short: as §1
# [31] = molecular target: Neu5Ac(a2-3)Gal(b1-3)[Neu5Ac(a2-6)]GalNAc
# In short: as §1
# [32] = molecular target: Neu5Ac(a2-3)Gal(b1-4)Glc
# In short: as §1
# [33] = molecular target: Neu5Ac(a2-3)Gal(b1-4)GlcNAc
# In short: as §1
# [34] = molecular target: Neu5Ac(a2-3)Gal(b1-4)GlcNAc(b1-2)Man(a1-3)[Neu5Ac(a2-3)Gal(b1-4)GlcNAc(b1-2)Man(a1-6)]Man(b1-4)GlcNAc(b1-4)GlcNAc
# In short: as §1
# [35] = molecular target: Neu5Ac(a2-3)Gal(b1-4)GlcNAc(b1-3)Gal(b1-4)GlcNAc
# In short: as §1
# [36] = molecular target: Neu5Ac(a2-3)Gal(b1-4)GlcNAc(b1-3)Gal(b1-4)GlcNAc(b1-3)Gal(b1-4)GlcNAc
# In short: as §1
# [37] = molecular target: Neu5Ac(a2-3)Gal(b1-4)GlcNAc(b1-3)Gal(b1-4)[Fuc(a1-3)]GlcNAc
# In short: as §1
binder,measurement,setting,value
RS-IIL (Ralstonia solanacearum) (protein) AQQGVFTLPANTSFGVTAFANAANTQTIQVLVDNVVKATFTGSGTSDKLLGSQVLNSGSGAIKIQVSVNGKPSDLVSNQTILANKLNFAMVGSEDGTDNDYNDGIAVLNWPLG,glycan array binding signal (z-score),[1],-0.388
same,glycan array binding signal (z-score),[2],-0.389
same,glycan array binding signal (z-score),[3],-0.389
same,glycan array binding signal (z-score),[4],-0.377
same,glycan array binding signal (z-score),[5],-0.388
same,glycan array binding signal (z-score),[6],-0.389
same,glycan array binding signal (z-score),[7],-0.378
same,glycan array binding signal (z-score),[8],4.58
same,glycan array binding signal (z-score),[9],5.58
same,glycan array binding signal (z-score),[10],3.63
same,glycan array binding signal (z-score),[11],4.47
same,glycan array binding signal (z-score),[12],2.68
same,glycan array binding signal (z-score),[13],4.71
same,glycan array binding signal (z-score),[14],2.99
same,glycan array binding signal (z-score),[15],3.39
same,glycan array binding signal (z-score),[16],3.46
same,glycan array binding signal (z-score),[17],3.48
same,glycan array binding signal (z-score),[18],4.76
same,glycan array binding signal (z-score),[19],0.639
same,glycan array binding signal (z-score),[20],-0.388
same,glycan array binding signal (z-score),[21],-0.389
same,glycan array binding signal (z-score),[22],-0.386
same,glycan array binding signal (z-score),[23],-0.372
same,glycan array binding signal (z-score),[24],-0.377
same,glycan array binding signal (z-score),[25],-0.389
same,glycan array binding signal (z-score),[26],-0.388
same,glycan array binding signal (z-score),[27],-0.387
same,glycan array binding signal (z-score),[28],0.411
same,glycan array binding signal (z-score),[29],0.541
same,glycan array binding signal (z-score),[30],-0.389
same,glycan array binding signal (z-score),[31],-0.389
same,glycan array binding signal (z-score),[32],-0.388
same,glycan array binding signal (z-score),[33],-0.387
same,glycan array binding signal (z-score),[34],-0.353
same,glycan array binding signal (z-score),[35],-0.349
same,glycan array binding signal (z-score),[36],-0.389
same,glycan array binding signal (z-score),[37],-0.388
